{"source": "PubChem BioAssay AID488969", "about": "(Vanderbilt High Throughput Screening Facility, 2010)", "note": "The full ranking holds about 110,000 compounds; the median of “z-score” is about -0.1, and the highest 2% start at about 2. Some of the results follow."}
{"target": "Metabotropic glutamate receptor 8 (Rattus norvegicus) (UniProt P70579)", "sequence (P70579 whole entry, looked up)": "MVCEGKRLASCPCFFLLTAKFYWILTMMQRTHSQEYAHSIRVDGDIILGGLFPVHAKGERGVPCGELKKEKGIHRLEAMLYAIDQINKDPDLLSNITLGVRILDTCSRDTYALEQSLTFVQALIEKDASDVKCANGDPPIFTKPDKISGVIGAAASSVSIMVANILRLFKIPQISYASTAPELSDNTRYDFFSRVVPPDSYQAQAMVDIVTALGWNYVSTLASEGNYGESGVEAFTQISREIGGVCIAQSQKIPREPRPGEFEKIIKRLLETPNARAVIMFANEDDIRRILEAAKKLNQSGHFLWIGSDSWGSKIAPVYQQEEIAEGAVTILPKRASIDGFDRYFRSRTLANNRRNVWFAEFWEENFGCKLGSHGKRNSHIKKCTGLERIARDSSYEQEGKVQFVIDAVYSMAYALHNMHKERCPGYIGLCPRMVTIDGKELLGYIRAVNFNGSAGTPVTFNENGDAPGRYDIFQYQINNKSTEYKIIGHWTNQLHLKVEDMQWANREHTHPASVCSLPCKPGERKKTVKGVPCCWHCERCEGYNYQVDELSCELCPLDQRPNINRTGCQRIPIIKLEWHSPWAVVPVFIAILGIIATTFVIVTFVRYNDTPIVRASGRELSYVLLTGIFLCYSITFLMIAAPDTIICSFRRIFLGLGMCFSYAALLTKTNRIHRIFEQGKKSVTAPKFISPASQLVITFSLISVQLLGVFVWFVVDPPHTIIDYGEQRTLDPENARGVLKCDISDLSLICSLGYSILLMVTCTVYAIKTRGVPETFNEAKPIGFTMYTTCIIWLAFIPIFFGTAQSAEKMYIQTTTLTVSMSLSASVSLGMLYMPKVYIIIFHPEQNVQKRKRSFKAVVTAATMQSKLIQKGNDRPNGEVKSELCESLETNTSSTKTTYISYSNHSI", "assay": "rat mGluR8 modulators via GIRK flux, primary screen, cell-based, thallium flux, HTS (AID 488969)", "details": "HEK293 rat mGluR8, GIRK (G protein-gated inwardly rectifying potassium channel) thallium flux, FluoZin2; at 10 µM; stronger effect = higher value; submaximal glutamate (EC20) added with thallium"}
{"smiles": "COC(=O)c1cc(-c2ccccc2)sc1NC(=O)c1cc(C)on1", "z-score": -0.11}
{"smiles": "CCCC(=O)O[C@H]1C[C@@H](C)N(C(=O)c2ccccc2)c2ccc(C)cc21", "z-score": -0.936}
{"smiles": "O=C(CSc1nnc(C2CCCCC2)n1-c1ccccc1)NCc1ccco1", "z-score": -0.483}
{"smiles": "O=S(=O)(Cc1ccccc1Cl)N1CCCCC1", "z-score": -1.07}
{"smiles": "CC(C)CC(=O)NCCNC(=O)c1cc(OCC(F)(F)F)ccc1OCC(F)(F)F", "z-score": 0.303}
{"smiles": "O=C(c1ccc(S(=O)(=O)c2ccccc2)cc1)N1CCc2ccccc2C1", "z-score": -0.983}
{"smiles": "CC(=O)N(Cc1cc(=O)[nH]c2ccccc12)c1cccc(C)c1", "z-score": -0.204}
{"smiles": "NC(=O)Cn1cc(C(=O)c2cccs2)c2ccccc21", "z-score": -0.0354}
{"smiles": "CC(C)C(C(=O)N1CCOCC1)N1C(=O)c2ccccc2C1=O", "note": "(configuration not stated)", "z-score": 0.147}
{"smiles": "CN(C)S(=O)(=O)c1ccc2c(c1)nc1n2CCC1", "z-score": 0.423}
{"smiles": "O=C(CCN1CCN(c2ccccc2)CC1)Nc1ccccc1F", "z-score": -0.185}
{"smiles": "NC(=O)c1ccccc1NC(=O)/C=C/c1cccc(Cl)c1", "z-score": -0.189}
{"smiles": "COc1ccc(-c2nc(CSCC(=O)NCc3ccc4c(c3)OCO4)c(C)o2)cc1", "z-score": -0.196}
{"smiles": "O=C(c1ccc(COc2ccccc2Cl)o1)N1CCN(Cc2ccc3c(c2)OCO3)CC1", "z-score": 0.102}
{"smiles": "COc1ccccc1NC(=O)COc1ccc(CO)cc1Cl", "z-score": -1.6}
{"smiles": "CC(=O)N1c2ccccc2C(C)CC12CCCCC2", "note": "(configuration not stated)", "z-score": -0.188}
{"smiles": "COc1ccc(Oc2nnc(-c3ccccc3)cc2C#N)cc1", "z-score": -0.0586}
{"smiles": "CCOC(=O)NC(=O)/C(C#N)=N/Nc1ccc(F)cc1", "z-score": -0.295}
{"smiles": "COCCn1c(Cc2ccccc2)nnc1SCC(=O)NC(C)(C)C", "z-score": -0.195}
{"smiles": "CC(=O)N1CCC(C(=O)c2ccc(Cl)cc2)CC1", "z-score": 0.113}
{"smiles": "CCOC(=O)NC(Nc1nnc(C)s1)(C(=O)OCC)C(F)(F)F", "note": "(configuration not stated)", "z-score": 0.168}
{"smiles": "COc1ccc(NS(=O)(=O)c2ccc3nc(COc4ccc5ccccc5c4)[nH]c3c2)cc1", "z-score": -0.421}
{"smiles": "COCC(C)n1c(SCc2ccc(C(=O)OC)o2)nc2ccccc2c1=O", "note": "(configuration not stated)", "z-score": -0.54}
{"smiles": "CC(C)(C)NC(=O)NC(=O)COC(=O)c1ccc2c(c1)S(=O)(=O)N=C1CCCCCN12", "z-score": -0.0528}
{"smiles": "O=C(COC(=O)COc1ccccc1Cl)Nc1ccccc1OC(F)F", "z-score": -0.428}
{"smiles": "Cc1cnc(NC(=O)CSc2nnc(Cc3ccccc3)n2C)s1", "z-score": -0.0432}
{"smiles": "O=C(O)c1cccc(C(=O)Cc2ccccc2)c1", "z-score": -0.369}
{"smiles": "CCOc1ccc(OCC)c(NC(=O)CSc2nnnn2CC)c1", "z-score": 0.212}
{"smiles": "Cc1ccc(NC(=S)C2=C(O)c3sccc3N(C)S2(=O)=O)cc1", "z-score": 0.0742}
{"smiles": "CCOc1ccc(-n2c(=O)cc(N3CCN(c4ccccc4)CC3)[nH]c2=O)cc1", "z-score": 0.106}
{"smiles": "COCCNC(=O)c1onc(CSc2cccc(Cl)c2)c1C(=O)O", "z-score": -0.0118}
{"smiles": "N#Cc1c(N2CCOCC2)nc(-c2ccco2)c2c1CCCC2", "z-score": -0.0657}
{"smiles": "CCC(C)NC(=O)CNC(=S)N(CCCN1CCOCC1)Cc1cccs1", "note": "(configuration not stated)", "z-score": -0.563}
{"smiles": "COc1c(C)cc(Br)cc1C(=O)Nc1ccc(N2CCN(S(C)(=O)=O)CC2)cc1", "z-score": -0.208}
{"smiles": "Cc1nn(-c2ccccc2)c(N2CCCC2)c1/C=N/NC(=O)c1cc(-c2cccnc2)nc2ccccc12", "z-score": -0.311}
{"smiles": "CCC1NC(=S)N(C2CCCCC2)C1=O", "note": "(configuration not stated)", "z-score": -0.196}
{"smiles": "Cc1c(Cl)c(C(F)(F)F)nn1CC(=O)N1CCSCC1", "z-score": 0.425}
{"smiles": "O=C1CSC(c2nn(-c3ccccc3)cc2-c2cc3ccccc3oc2=O)N1Cc1ccco1", "note": "(configuration not stated)", "z-score": 0.0314}
{"smiles": "Cc1ccccc1NC(=O)CSc1nnc(Cc2ccccc2)o1", "z-score": -0.0343}
{"smiles": "CNc1c([N+](=O)[O-])ncn1C", "z-score": -0.802}
{"smiles": "Cc1cc(NC(=O)c2cc([N+](=O)[O-])cc([N+](=O)[O-])c2)n(-c2ccccc2)n1", "z-score": -0.172}
{"smiles": "CCNS(=O)(=O)c1ccc(CCC(=O)Nc2cc(Cl)ccc2Oc2ccccc2)cc1", "z-score": -0.0841}
{"smiles": "COc1ccc(C(=O)Nc2ccc3c4c(cccc24)CC3)cc1", "z-score": -0.301}
{"smiles": "O=C(O)C1C2C=CC(C2)C1C(=O)Nc1cccc(F)c1", "note": "(configuration not stated)", "z-score": 0.376}
{"smiles": "CS(=O)c1ccccc1COC(=O)Nc1ccc(Cl)cc1", "note": "(configuration not stated)", "z-score": -0.0279}
{"smiles": "CCOC(=O)N1CCC(N2Cc3cccc(C(=O)Nc4ccc(CC)cc4)c3C2=O)CC1", "z-score": -0.393}
{"smiles": "CCOC(=O)C1CCN(C(=O)CCS(=O)(=O)c2ccc3c(c2)CCN3C(C)=O)CC1", "z-score": 0.0537}
{"smiles": "Cc1ccccc1C(=O)N1CCN(c2ncnc3c2cnn3-c2ccccc2)CC1", "z-score": -0.224}
{"smiles": "FC(F)(F)c1cccc(NC(=S)Nc2cccc(Cl)c2)c1", "z-score": 1.03}
{"smiles": "CCN1C(=O)C(CC(=O)Nc2c(C)cccc2C)SC1=Nc1ccc(S(N)(=O)=O)cc1", "note": "(configuration not stated)", "z-score": -0.0684}
{"smiles": "C=CCc1cc(C)cc(C)c1OCCn1cncn1", "z-score": 0.241}
{"smiles": "O=C(COCC(=O)Nc1cccc(C(F)(F)F)c1)Nc1cccc(C(F)(F)F)c1", "z-score": 0.00891}
{"smiles": "COc1ccc2oc(C)c(C(=O)NN)c2c1", "z-score": -0.136}
{"smiles": "Cc1cc2ccccc2n1CCNC(=O)C1CCCC1", "z-score": 0.191}
{"smiles": "CC(C)(C)C(=O)c1cnc(Nc2ccccc2Cl)s1", "z-score": 1.04}
{"smiles": "Cc1cccc(CSCCNC(=O)COc2ccc(Cl)cc2)c1", "z-score": -0.0336}
{"smiles": "CCCNS(=O)(=O)c1ccc(CCC(=O)Nc2ccc3c(c2)OCO3)cc1", "z-score": -0.159}
{"smiles": "CCN(CC)C(=O)N1CCn2c(nc3ccccc32)C1", "z-score": -0.233}
{"smiles": "COc1ccc(C(C)=O)cc1CSc1nnc(C)s1", "z-score": -0.119}
{"smiles": "Cc1nc(N/N=C/c2ccccn2)sc1C", "z-score": -0.0771}
{"smiles": "CCCCCCCCCCCC(=O)NC(C(=O)OCC)C(O)c1cccc([N+](=O)[O-])c1", "note": "(configuration not stated)", "z-score": 0.0134}
{"smiles": "CC(=O)c1c(O)cc(=O)n(-c2ccccc2)c1-c1ccc(C)cc1", "z-score": -0.046}
{"smiles": "O=C1CCSc2ccc(Cl)cc2N1Cc1ccc(Cl)cc1", "z-score": -0.366}
{"smiles": "Cc1cc(C(=O)CSc2nc3ccccc3[nH]2)c(C)n1Cc1ccco1", "z-score": -0.207}
{"smiles": "CCCCN1C(=O)C2C3C=CC(C2C1=O)C1C2C(=O)N(CCCC)C(=O)C2C31", "note": "(configuration not stated)", "z-score": -0.244}
{"smiles": "Nc1c(C(=O)NC23CC4CC(CC(C4)C2)C3)sc2nc3c(c(C(F)(F)F)c12)CCC3", "z-score": -0.168}
{"smiles": "OCCN1CCN(c2cc(-c3ccccc3)c3ccccc3n2)CC1", "z-score": -0.0988}
{"smiles": "COc1ccc(CC(=O)OCc2cc3ccc(C)cc3[nH]c2=O)cc1", "z-score": -0.459}
{"smiles": "OC1C[N+]2(CCCCC2)C1", "z-score": -0.025}
{"smiles": "O=C(O)c1ccc(N(c2ccccc2)c2ccccc2)cc1", "z-score": 0.0379}
{"smiles": "COc1ccc(-c2cc(C(=O)Nc3cnn(Cc4ccccc4C)c3)no2)cc1OC", "z-score": -0.425}
{"smiles": "N#Cc1c(-c2ccco2)cc(-c2ccc(F)cc2)nc1N", "z-score": 0.827}
